Measurements from a collection of fitness landscapes (doi:10.1016/j.celrep.2020.107928).
Whole data set: some 81,000 sequences, median “one-hybrid fitness for binding NBS DNA” near -0.1, cut for the highest 2% near 0.36. This is one part of the list.

B1: Caulobacter ParB omega fusion; a variant is named by its letters at X, in order, B8GW30 (parent)
chain: MESVVVGEPGMSEGRRGLGRGLSALLGEVDAAPAQAPGEQLGGSREAPIEILQRNPDQPRRTFREEDLEDLSNSIREKGVLQPILVRPSPDTAGEYQIVAGERAWRAAQRAGLKTVPIMVRELDDLAVLEIGIIENVQRADLNVLEEALSYKVLMEKFERTQENIAQTIGKSXSHVANXMRLLXLPDEVQSYLVSGELTAXHARAIAAAADPVALAKQIIEGGLSVRETEALARKAPNLSAGKSKGGRPPRVKDTDTQALESDLSSVLGLDVSIDHRGSTGTLTITYATLEQLDDLCNRLTRGI

Variants of: B1
Experiment: one-hybrid fitness for binding NBS DNA (the Noc-binding site; scaled: cognate 1, non-cognate 0); higher = stronger binding
Conditions: with NBS DNA site
Method in brief: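 In E. coli USO, a HIS3 reporter with its site placed 19 bp from the promoter was used to select Caulobacter ParB variants randomised at four specificity codons. Growth lasted 48 hours at 37°C on histidine-free M9 containing 0.1 mM IPTG and 5 mM 3-AT. Fitness was taken as the log change in variant-to-wild-type read ratio from Illumina sequencing of pre- and post-selection plasmids, rescaled between the non-cognate and cognate sites.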

| Variant | one-hybrid fitness for binding NBS DNA |
| --- | --- |
| RRRD | 0.202 |
| VQGT | ≤ 0.2 |
| QHCY | ≤ 0.2 |
| RLVG | ≤ 0.2 |
| SLQE | ≤ 0.2 |
| RWVP | ≤ 0.2 |
| RKAT | 0.643 |
| SLYK | ≤ 0.2 |
| KPIR | ≤ 0.2 |
| QMIR | 0.398 |
| AVRT | ≤ 0.2 |
| QASN | ≤ 0.2 |
| SPPF | ≤ 0.2 |
| GPRF | ≤ 0.2 |
| IWQL | ≤ 0.2 |
| IAKA | ≤ 0.2 |
| FTNS | ≤ 0.2 |
| LGRV | ≤ 0.2 |
| ATTE | ≤ 0.2 |
| VKEC | ≤ 0.2 |
| VWAR | ≤ 0.2 |
| TCRG | ≤ 0.2 |
| PDCF | ≤ 0.2 |
| HSDW | ≤ 0.2 |

| Variant | one-hybrid fitness for binding NBS DNA |
| --- | --- |
| LLVW | ≤ 0.2 |
| PMLW | ≤ 0.2 |
| AWRC | ≤ 0.2 |
| GMTM | ≤ 0.2 |
| CAVE | ≤ 0.2 |
| TPKY | ≤ 0.2 |
| NSTD | ≤ 0.2 |
| NMHT | ≤ 0.2 |
| ILYW | ≤ 0.2 |
| KKNA | ≤ 0.2 |
| TPLL | ≤ 0.2 |
| QAMG | ≤ 0.2 |
| LWIR | ≤ 0.2 |
| WYWS | ≤ 0.2 |
| YLHW | ≤ 0.2 |
| ANAV | ≤ 0.2 |
| KRWN | ≤ 0.2 |
| CLHS | ≤ 0.2 |
| NYIT | ≤ 0.2 |
| DDTV | ≤ 0.2 |
| PLNA | ≤ 0.2 |
| GPRH | ≤ 0.2 |
| MKNT | ≤ 0.2 |
| AIYI | ≤ 0.2 |

| Variant | one-hybrid fitness for binding NBS DNA |
| --- | --- |
| RHYP | ≤ 0.2 |
| FSKG | ≤ 0.2 |
| HLRK | ≤ 0.2 |
| LDSE | ≤ 0.2 |
| GQKR | 0.201 |
| GWQR | ≤ 0.2 |
| GTIC | ≤ 0.2 |
| HPYT | ≤ 0.2 |
| WYTC | ≤ 0.2 |
| KGHS | ≤ 0.2 |
| PVVK | ≤ 0.2 |
| QYAW | ≤ 0.2 |
| KMCR | ≤ 0.2 |
| PSEF | ≤ 0.2 |
| PCFG | ≤ 0.2 |
| TNDI | ≤ 0.2 |
| FRNH | ≤ 0.2 |
| LFCS | ≤ 0.2 |
| PSWF | ≤ 0.2 |
| NVNK | ≤ 0.2 |
| SFCS | ≤ 0.2 |
| ANPG | ≤ 0.2 |
| HRMH | ≤ 0.2 |
| VMSN | ≤ 0.2 |

| Variant | one-hybrid fitness for binding NBS DNA |
| --- | --- |
| MHNW | ≤ 0.2 |
| TVWG | ≤ 0.2 |
| TFTL | ≤ 0.2 |
| RPNF | ≤ 0.2 |
| NISA | ≤ 0.2 |
| KVSN | ≤ 0.2 |
| MAFE | ≤ 0.2 |
| QVDT | ≤ 0.2 |
| KLMP | ≤ 0.2 |
| QERV | ≤ 0.2 |
| WWHL | ≤ 0.2 |
| SHMC | ≤ 0.2 |
| SEVR | ≤ 0.2 |
| YVAR | ≤ 0.2 |
| HDAP | ≤ 0.2 |
| SAGF | ≤ 0.2 |
| SNGT | ≤ 0.2 |
| EIQR | ≤ 0.2 |
| CTLS | ≤ 0.2 |
| LHTM | ≤ 0.2 |
| PVSL | ≤ 0.2 |
| GKPE | ≤ 0.2 |
| RENL | ≤ 0.2 |
| TAMI | ≤ 0.2 |

| Variant | one-hybrid fitness for binding NBS DNA |
| --- | --- |
| VWTT | ≤ 0.2 |
| LSDF | ≤ 0.2 |
| PQQK | ≤ 0.2 |
| RRWV | 0.261 |
| VTAG | ≤ 0.2 |
| QSLG | ≤ 0.2 |
| NFPH | ≤ 0.2 |
| RRGE | ≤ 0.2 |
| VKFS | ≤ 0.2 |
| QIWR | 0.304 |
| FQKS | ≤ 0.2 |
| HNPN | ≤ 0.2 |
| GMYN | ≤ 0.2 |
| RLEW | ≤ 0.2 |
| AIFS | ≤ 0.2 |
| ELNF | ≤ 0.2 |
| CQGG | ≤ 0.2 |
| IAHG | ≤ 0.2 |
| GRGG | ≤ 0.2 |
| DEER | ≤ 0.2 |
| TLQA | ≤ 0.2 |
| ARKM | ≤ 0.2 |
| EMDK | ≤ 0.2 |
| SFGS | ≤ 0.2 |

| Variant | one-hybrid fitness for binding NBS DNA |
| --- | --- |
| EEDS | ≤ 0.2 |
| THVI | ≤ 0.2 |
| EKIY | ≤ 0.2 |
| LKVM | ≤ 0.2 |
| HMTI | ≤ 0.2 |
| PHDS | ≤ 0.2 |
| KCNA | ≤ 0.2 |
| GENR | ≤ 0.2 |
| WAER | ≤ 0.2 |
| GMDR | ≤ 0.2 |
| DQIT | ≤ 0.2 |
| QMHP | ≤ 0.2 |
| KIYG | ≤ 0.2 |
| GAAI | ≤ 0.2 |
| MAPT | ≤ 0.2 |
| QRLD | ≤ 0.2 |
| KTQL | ≤ 0.2 |
| HTDI | ≤ 0.2 |
| DACV | ≤ 0.2 |
| TYEA | ≤ 0.2 |
| YQYR | ≤ 0.2 |
| MCDS | ≤ 0.2 |
| CAGV | ≤ 0.2 |
| ASCK | ≤ 0.2 |

| Variant | one-hybrid fitness for binding NBS DNA |
| --- | --- |
| SHMN | ≤ 0.2 |
| RYIV | ≤ 0.2 |
| CCCR | ≤ 0.2 |
| QWLT | ≤ 0.2 |
| NPRF | ≤ 0.2 |
| PISN | ≤ 0.2 |
| MSGD | ≤ 0.2 |
| PKKS | ≤ 0.2 |
| WMTS | ≤ 0.2 |
| LANC | ≤ 0.2 |
| ASNY | ≤ 0.2 |
| AMPD | ≤ 0.2 |
| YKHL | ≤ 0.2 |
| MNGV | ≤ 0.2 |
| CRLY | ≤ 0.2 |
| MIER | ≤ 0.2 |
| KNIF | ≤ 0.2 |
| RNPN | ≤ 0.2 |
| NSKS | ≤ 0.2 |
| HFGC | ≤ 0.2 |
| ALHL | ≤ 0.2 |
| SRKH | ≤ 0.2 |
| TIIT | ≤ 0.2 |
| DSDD | ≤ 0.2 |

| Variant | one-hybrid fitness for binding NBS DNA |
| --- | --- |
| GLVR | ≤ 0.2 |
| HIGT | ≤ 0.2 |
| QFIT | ≤ 0.2 |
| AAMT | ≤ 0.2 |
| NPPT | ≤ 0.2 |
| DLAC | ≤ 0.2 |
| RAED | ≤ 0.2 |
| HTHN | ≤ 0.2 |
| NVGY | ≤ 0.2 |
| IWHC | ≤ 0.2 |
| IKQT | ≤ 0.2 |
| ARAF | ≤ 0.2 |
| LARH | ≤ 0.2 |
| HPAR | ≤ 0.2 |
| PMAT | ≤ 0.2 |
| NLCN | ≤ 0.2 |
| SESV | ≤ 0.2 |
| QMLQ | ≤ 0.2 |
| DTKV | ≤ 0.2 |
| HEYS | ≤ 0.2 |
| RGRG | ≤ 0.2 |
| ALVF | ≤ 0.2 |
| TLMS | ≤ 0.2 |
| LPHS | ≤ 0.2 |

| Variant | one-hybrid fitness for binding NBS DNA |
| --- | --- |
| LHWK | ≤ 0.2 |
| RGVK | ≤ 0.2 |
| VPHA | ≤ 0.2 |
| SVMG | ≤ 0.2 |
| PQNK | ≤ 0.2 |
| AQHK | ≤ 0.2 |
| TKYG | ≤ 0.2 |
| RYMY | ≤ 0.2 |
| LGCV | ≤ 0.2 |
| YTDA | ≤ 0.2 |
| SWPV | ≤ 0.2 |
| HPNS | ≤ 0.2 |
| NKQF | ≤ 0.2 |
| SARQ | ≤ 0.2 |
| LCQY | ≤ 0.2 |
| ADTM | ≤ 0.2 |
| LAEV | ≤ 0.2 |
| DSDE | ≤ 0.2 |
| YMLA | ≤ 0.2 |
| VLYD | ≤ 0.2 |
| HHSG | ≤ 0.2 |
| SHPC | ≤ 0.2 |
| LSGV | ≤ 0.2 |
| QSGN | ≤ 0.2 |

| Variant | one-hybrid fitness for binding NBS DNA |
| --- | --- |
| SCDT | ≤ 0.2 |
| ATAH | ≤ 0.2 |
| ITLY | ≤ 0.2 |
| SWQS | ≤ 0.2 |
| ECGR | ≤ 0.2 |
| QLGQ | ≤ 0.2 |
| PDLG | ≤ 0.2 |
| NCRS | ≤ 0.2 |
| FMHS | ≤ 0.2 |
| SYSL | ≤ 0.2 |
| WLSS | ≤ 0.2 |
| HRRK | ≤ 0.2 |
| VIKR | ≤ 0.2 |
| GTLY | ≤ 0.2 |
| ARPA | ≤ 0.2 |
| GYRI | ≤ 0.2 |
| GNSC | ≤ 0.2 |
| PRFC | ≤ 0.2 |
| GKEG | ≤ 0.2 |
| DFMR | ≤ 0.2 |
| AFNK | ≤ 0.2 |
| VMGS | ≤ 0.2 |
| EICR | ≤ 0.2 |
| PGRD | ≤ 0.2 |

| Variant | one-hybrid fitness for binding NBS DNA |
| --- | --- |
| MQTR | ≤ 0.2 |
| IPAK | ≤ 0.2 |
| PFYA | ≤ 0.2 |
| TDRT | ≤ 0.2 |
| NIYW | ≤ 0.2 |
| IKYR | ≤ 0.2 |
| TTYW | ≤ 0.2 |
| PMRF | ≤ 0.2 |
| TFYC | ≤ 0.2 |
| RYNC | ≤ 0.2 |
| RNLG | ≤ 0.2 |
| ARSW | ≤ 0.2 |
| GVLD | ≤ 0.2 |
| PDGC | ≤ 0.2 |
| KGIR | ≤ 0.2 |
| PHSC | ≤ 0.2 |
| WMLS | ≤ 0.2 |
| YPLS | ≤ 0.2 |
| LRNA | ≤ 0.2 |
| TQNF | ≤ 0.2 |
| PRHD | ≤ 0.2 |
| SWGH | ≤ 0.2 |
| EFNV | ≤ 0.2 |
| GSME | ≤ 0.2 |

| Variant | one-hybrid fitness for binding NBS DNA |
| --- | --- |
| RIEE | ≤ 0.2 |
| PSHK | ≤ 0.2 |
| MKMD | ≤ 0.2 |
| VDSF | ≤ 0.2 |
| GMSL | ≤ 0.2 |
| CSSF | ≤ 0.2 |
| HYIC | ≤ 0.2 |
| VTLR | ≤ 0.2 |
| PQAI | ≤ 0.2 |
| MNVE | ≤ 0.2 |
| MQND | ≤ 0.2 |
| RYNL | ≤ 0.2 |
| AGQT | ≤ 0.2 |
| PHSR | ≤ 0.2 |
| VSST | ≤ 0.2 |
| MSPR | ≤ 0.2 |
| AEGE | ≤ 0.2 |
| FAQR | ≤ 0.2 |
| DKWF | ≤ 0.2 |
| VRSC | ≤ 0.2 |
| MIPQ | ≤ 0.2 |
| MGCA | ≤ 0.2 |
| MTSY | ≤ 0.2 |
| GCML | ≤ 0.2 |

| Variant | one-hybrid fitness for binding NBS DNA |
| --- | --- |
| HHES | ≤ 0.2 |
| FSPD | ≤ 0.2 |
| QHKS | 0.655 |
| AEIS | ≤ 0.2 |
| KNDC | ≤ 0.2 |
| SIQY | ≤ 0.2 |
| IGYG | ≤ 0.2 |
| RWPV | ≤ 0.2 |
| RDGD | ≤ 0.2 |
| DHQL | ≤ 0.2 |
| HLSL | ≤ 0.2 |
| RFGP | ≤ 0.2 |
| CYRG | ≤ 0.2 |
| SADM | ≤ 0.2 |
| ANET | ≤ 0.2 |
| PTRS | ≤ 0.2 |
| TSAL | ≤ 0.2 |
| RIRR | 0.638 |
